Measurements reported in paper PMC4336329 (PLoS ONE, 2015).
In all, about 310,000 compounds went through this assay and about 14,000 (4.5%) showed an effect of 50% or more. The effect is printed as a negative number. The list shows a part of the results.
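Note: peak tail current of the secondary pulse compared with the same well before compound.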

The molecules below were run against human ether-à-go-go-related gene (hERG) potassium channel (human, UniProt Q12809) (assay: primary screen, population patch clamp on CHO cells stably expressing hERG).
human ether-à-go-go-related gene (hERG) potassium channel, sequence (Q12809 whole entry, looked up): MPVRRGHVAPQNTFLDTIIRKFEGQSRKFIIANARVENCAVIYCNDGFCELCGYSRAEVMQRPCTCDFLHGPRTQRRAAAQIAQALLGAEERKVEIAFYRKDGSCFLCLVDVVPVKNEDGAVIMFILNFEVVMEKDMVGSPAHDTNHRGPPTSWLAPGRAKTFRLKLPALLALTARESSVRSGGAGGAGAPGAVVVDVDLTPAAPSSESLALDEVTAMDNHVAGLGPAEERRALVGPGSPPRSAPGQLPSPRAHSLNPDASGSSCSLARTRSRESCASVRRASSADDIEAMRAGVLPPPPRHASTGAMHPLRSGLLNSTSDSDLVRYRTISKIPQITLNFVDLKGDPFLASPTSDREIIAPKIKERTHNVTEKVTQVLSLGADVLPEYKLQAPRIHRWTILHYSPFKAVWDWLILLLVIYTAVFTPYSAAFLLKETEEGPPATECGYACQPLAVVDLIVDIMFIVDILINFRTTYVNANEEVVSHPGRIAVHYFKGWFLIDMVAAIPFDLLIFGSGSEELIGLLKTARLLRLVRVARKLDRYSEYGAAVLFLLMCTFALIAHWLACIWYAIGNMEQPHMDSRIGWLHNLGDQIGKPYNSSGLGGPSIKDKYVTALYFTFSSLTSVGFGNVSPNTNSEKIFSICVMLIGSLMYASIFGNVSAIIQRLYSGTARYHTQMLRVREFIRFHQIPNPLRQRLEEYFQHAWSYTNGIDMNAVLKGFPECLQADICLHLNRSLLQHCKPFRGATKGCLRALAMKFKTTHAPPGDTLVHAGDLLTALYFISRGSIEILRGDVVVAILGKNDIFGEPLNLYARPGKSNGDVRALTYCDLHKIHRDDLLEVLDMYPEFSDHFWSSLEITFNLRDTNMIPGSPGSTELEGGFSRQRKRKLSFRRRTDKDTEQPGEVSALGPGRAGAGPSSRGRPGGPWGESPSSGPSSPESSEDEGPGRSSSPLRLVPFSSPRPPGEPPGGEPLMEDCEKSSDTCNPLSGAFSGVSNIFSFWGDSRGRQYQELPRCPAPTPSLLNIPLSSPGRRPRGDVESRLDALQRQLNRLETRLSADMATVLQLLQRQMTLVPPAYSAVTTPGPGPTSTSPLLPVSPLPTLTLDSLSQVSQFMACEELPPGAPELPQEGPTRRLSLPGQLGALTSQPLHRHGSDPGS
`O=C(NCCc1ccc(Cl)cc1)C1CCCN(S(=O)(=O)c2cnc[nH]2)C1` (stereo not shown) was tested, and the “hERG current change (%, negative = inhibition) at 10uM” value was -3.31%.
In the case of `Br.Cc1nc(SC2C=CS(=O)(=O)C2)n[nH]1` (stereo not shown), the “hERG current change (%, negative = inhibition) at 10uM” value is reported as 10.6%.
For `COCCn1c(SC(C)C(=O)Nc2ccc3c(c2)OCCO3)nc2ccccc2c1=O` (stereo not shown), the “hERG current change (%, negative = inhibition) at 10uM” value was -1.62%.
With `COc1ccc(CNCC(=O)Nc2cc(OC)cc(OC)c2)cc1.O=C(O)C(=O)O` the “hERG current change (%, negative = inhibition) at 10uM” value was 4.46%.
`COc1cccc(C(=O)OCCN2C(=O)c3ccccc3C2=O)c1OC` was tested, and the “hERG current change (%, negative = inhibition) at 10uM” value was 4.5%.
With `COc1ccc(C(CC(=O)O)NC(=O)COc2ccc(C)cc2)cc1OC` (stereo not shown) the “hERG current change (%, negative = inhibition) at 10uM” value was 15.2%.
For `O=C(Cc1ccc(Cl)cc1)NCCc1c[nH]c2ccccc12`, the “hERG current change (%, negative = inhibition) at 10uM” value was -19.8%.
For `O=C(O)/C=C/C(=O)Nc1ccccc1SC(F)(F)F`, the “hERG current change (%, negative = inhibition) at 10uM” value was 5.74%.
For `Cn1c(C(=O)O)c(CC(=O)N2CCN(Cc3ccccc3)CC2)c2ccccc21`, the “hERG current change (%, negative = inhibition) at 10uM” value was 12.1%.
In the case of `CSc1n[nH]c(N)c1S(=O)(=O)c1ccc(Cl)cc1`, the “hERG current change (%, negative = inhibition) at 10uM” value is reported as 4.54%.
In the case of `Cc1ccc(-n2c(Cc3cccs3)nnc2SCC(=O)Nc2ccc(S(N)(=O)=O)cc2)cc1`, the “hERG current change (%, negative = inhibition) at 10uM” value is reported as -12.3%.
`O=C(COc1ccc(S(=O)(=O)N2CCCC2)cc1)Nc1ccc(F)cc1` was tested, and the “hERG current change (%, negative = inhibition) at 10uM” value was 5.18%.
For `O=C(OC1CCOC1=O)c1ccc(NS(=O)(=O)c2cccs2)cc1` (stereo not shown), the “hERG current change (%, negative = inhibition) at 10uM” value was 21.8%.
`COc1cccc(SCc2noc(C(=O)NCCN(C)C)c2C(=O)NCCN(C)C)c1` was tested, and the “hERG current change (%, negative = inhibition) at 10uM” value was 10.3%.
For `COC(=O)[C@H](Cc1ccccc1)NC(=O)NCc1ccc(C)cc1`, the “hERG current change (%, negative = inhibition) at 10uM” value was -21.3%.
`CC1CN(C(=O)c2ccc(C(=O)c3ccccc3)cc2)CC(C)O1` (stereo not shown) was tested, and the “hERG current change (%, negative = inhibition) at 10uM” value was 3.89%.
With `Cc1nn(-c2ccccc2)c(C)c1NC(=O)CCl` the “hERG current change (%, negative = inhibition) at 10uM” value was 1.23%.
`CCc1ccc(OCC(=O)N(Cc2ccccc2)C2CCS(=O)(=O)C2)cc1` (stereo not shown) was tested, and the “hERG current change (%, negative = inhibition) at 10uM” value was -30%.
For `Cc1ccc(C(C(=O)NC2CCCC2)N(Cc2cccnc2)C(=O)c2snc(C(N)=O)c2N)o1` (stereo not shown), the “hERG current change (%, negative = inhibition) at 10uM” value was -16.2%.
With `CCOc1ccc(NC(=S)NCCCN2CCN(c3ccc(OC)cc3)CC2)cc1` the “hERG current change (%, negative = inhibition) at 10uM” value was -70.7%.
`O=C(COc1ccccc1Cl)NC(=S)N1CCc2ccccc21` was tested, and the “hERG current change (%, negative = inhibition) at 10uM” value was -25.8%.
For `CCOC(=O)C(=CNc1ccc2c(c1)CCN2C(C)=O)C(=O)OCC`, the “hERG current change (%, negative = inhibition) at 10uM” value was -12.5%.
`Nc1n[nH]c2cc(=O)n(-c3cccc(C(F)(F)F)c3)nc12` was tested, and the “hERG current change (%, negative = inhibition) at 10uM” value was 15.1%.
For `Cn1c(=O)cc(SCC(=O)N2CCN(c3ccccc3)CC2)c2ccccc21`, the “hERG current change (%, negative = inhibition) at 10uM” value was -30.9%.
With `CC(C)C(C(=O)NC1=NCCS1)c1ccc(Cl)cc1` (stereo not shown) the “hERG current change (%, negative = inhibition) at 10uM” value was 24.2%.
With `C/C(=N/NC(=O)c1sc(=S)n(C)c1C)c1ccccc1` the “hERG current change (%, negative = inhibition) at 10uM” value was 24.6%.
With `Cc1ccc(NC(=O)c2ccccc2OCC(=O)Nc2cccc(Cl)c2C)nc1` the “hERG current change (%, negative = inhibition) at 10uM” value was 6.67%.
In the case of `COc1ccc(CCN(Cc2cc3ccc(C)cc3n3nnnc23)C(C)=O)cc1OC`, the “hERG current change (%, negative = inhibition) at 10uM” value is reported as -32.7%.
In the case of `c1ccc(Nc2nc(-c3ccccn3)cs2)cc1`, the “hERG current change (%, negative = inhibition) at 10uM” value is reported as -2.41%.
For `COc1ccc(OC)c(/C=C(\NC(=O)c2ccccc2)C(=O)N/N=C/c2ccc(C)s2)c1`, the “hERG current change (%, negative = inhibition) at 10uM” value was -28.3%.
For `Cc1ccc(CNC(=O)Nc2cccs2)cc1`, the “hERG current change (%, negative = inhibition) at 10uM” value was -3.95%.
`COC(=O)c1c(N)n(-c2ccc(NC(C)=O)cc2)c2nc3ccccc3nc12` was tested, and the “hERG current change (%, negative = inhibition) at 10uM” value was 8.25%.
For `O=C(NNc1nc2ccccc2o1)c1ccccc1`, the “hERG current change (%, negative = inhibition) at 10uM” value was -37.6%.
For `C/C(=N/NC(=O)CNC(=O)c1ccccc1)c1ccc(C)cc1`, the “hERG current change (%, negative = inhibition) at 10uM” value was -41.5%.
`CN(C)S(=O)(=O)c1ccc(C(=O)NCCC(=O)N2CCCC2)cc1` was tested, and the “hERG current change (%, negative = inhibition) at 10uM” value was 15.3%.
For `COc1ccc(CCNC(=O)CN2C(=O)c3ccccc3S2(=O)=O)cc1`, the “hERG current change (%, negative = inhibition) at 10uM” value was -7.12%.
For `CCOC(=O)c1c(NC(=O)COC(=O)c2nccnc2N)sc2c1CCC2`, the “hERG current change (%, negative = inhibition) at 10uM” value was 10.4%.
In the case of `COc1ccc(CNC(=O)CN2C(=O)NC(C)(c3ccc(C(C)(C)C)cc3)C2=O)cc1` (stereo not shown), the “hERG current change (%, negative = inhibition) at 10uM” value is reported as -10.6%.
For `COc1ccc(NS(=O)(=O)c2ccc(N/N=C(\C)c3ccncc3)c([N+](=O)[O-])c2)cc1`, the “hERG current change (%, negative = inhibition) at 10uM” value was 4.88%.
For `Oc1ccccc1OCc1nc2ccccc2s1`, the “hERG current change (%, negative = inhibition) at 10uM” value was -13.7%.
`O=C(CSc1nc(-c2ccccc2)cc(C(F)(F)F)n1)NCCN1CCOCC1` was tested, and the “hERG current change (%, negative = inhibition) at 10uM” value was -14.8%.
For `Cc1cc(O)c(C2(O)C(=O)Nc3ccccc32)cc1C` (stereo not shown), the “hERG current change (%, negative = inhibition) at 10uM” value was 11.6%.
`CCCC(=O)c1c[nH]c(C(=O)NCCc2ccccn2)c1` was tested, and the “hERG current change (%, negative = inhibition) at 10uM” value was 26.4%.
In the case of `O=C1CCCCN1CCCC(=O)N1CCCC(Nc2ccc(F)cc2)C1` (stereo not shown), the “hERG current change (%, negative = inhibition) at 10uM” value is reported as 16%.
For `O=C(NC(=S)Nc1cccc([N+](=O)[O-])c1)c1ccco1`, the “hERG current change (%, negative = inhibition) at 10uM” value was 9.47%.
With `C#CC(CC)(CC)NC(=O)NC1CCCCC1` the “hERG current change (%, negative = inhibition) at 10uM” value was 15%.
For `CCCNC(=S)N1CCC(Cc2ccccc2)CC1`, the “hERG current change (%, negative = inhibition) at 10uM” value was 13.7%.
With `CNC(=O)CSc1nc2sccc2c(=O)n1-c1ccccc1` the “hERG current change (%, negative = inhibition) at 10uM” value was 10.5%.
`CCC(C)n1c(C)cc(C(N)=O)c1C` (stereo not shown) was tested, and the “hERG current change (%, negative = inhibition) at 10uM” value was 12.3%.
For `COc1ccc(Cl)cc1C(=O)Nc1cccnc1`, the “hERG current change (%, negative = inhibition) at 10uM” value was 17.4%.
`Cc1cc(C)cc(OCC(=O)Nc2ccc3c4c(cccc24)CC3)c1` was tested, and the “hERG current change (%, negative = inhibition) at 10uM” value was 5.36%.
With `Cc1ccc(C(=O)NCCNS(=O)(=O)c2ccccc2)cc1` the “hERG current change (%, negative = inhibition) at 10uM” value was -8.87%.
For `COc1ccccc1NC(=O)C(C)OC(=O)c1nc2nc(C)cc(C)n2n1` (stereo not shown), the “hERG current change (%, negative = inhibition) at 10uM” value was 8.89%.
With `CC1(C)Cc2c(C#N)c(OCC(=O)c3ccccc3)nc(-c3ccoc3)c2CO1` the “hERG current change (%, negative = inhibition) at 10uM” value was -6.19%.
In the case of `O=C(CNC(=O)c1ccccc1)NCC(=O)OCc1ccc(Cl)cc1`, the “hERG current change (%, negative = inhibition) at 10uM” value is reported as -29.3%.
With `Cc1ccc(-c2nn(C)c(=O)c3ccccc23)cc1CNC(=O)c1ccccc1` the “hERG current change (%, negative = inhibition) at 10uM” value was -34.5%.
In the case of `Cc1c(Cl)cccc1NC(=O)CCC(=O)N/N=C/c1ccc[nH]1`, the “hERG current change (%, negative = inhibition) at 10uM” value is reported as -2.38%.
In the case of `COc1ccc(-c2csc(NCCc3nc4cc(Cl)c(N5CCCCC5)cc4n3CCOCCO)n2)cc1`, the “hERG current change (%, negative = inhibition) at 10uM” value is reported as -10.4%.
